Experimental data reported in publication PMC4336329 (PLoS ONE, 2015).
About 14,000 (4.5%) of roughly 310,000 compounds showed an effect of 50% or more. Effects have a minus sign here. The list shows a part of the results.

target: human ether-à-go-go-related gene (hERG) potassium channel (human, UniProt Q12809); test: primary screen, population patch clamp on CHO cells stably expressing hERG
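Further: peak tail current of the secondary pulse compared with the same well before compound.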

human ether-à-go-go-related gene (hERG) potassium channel, sequence (Q12809 whole entry, looked up): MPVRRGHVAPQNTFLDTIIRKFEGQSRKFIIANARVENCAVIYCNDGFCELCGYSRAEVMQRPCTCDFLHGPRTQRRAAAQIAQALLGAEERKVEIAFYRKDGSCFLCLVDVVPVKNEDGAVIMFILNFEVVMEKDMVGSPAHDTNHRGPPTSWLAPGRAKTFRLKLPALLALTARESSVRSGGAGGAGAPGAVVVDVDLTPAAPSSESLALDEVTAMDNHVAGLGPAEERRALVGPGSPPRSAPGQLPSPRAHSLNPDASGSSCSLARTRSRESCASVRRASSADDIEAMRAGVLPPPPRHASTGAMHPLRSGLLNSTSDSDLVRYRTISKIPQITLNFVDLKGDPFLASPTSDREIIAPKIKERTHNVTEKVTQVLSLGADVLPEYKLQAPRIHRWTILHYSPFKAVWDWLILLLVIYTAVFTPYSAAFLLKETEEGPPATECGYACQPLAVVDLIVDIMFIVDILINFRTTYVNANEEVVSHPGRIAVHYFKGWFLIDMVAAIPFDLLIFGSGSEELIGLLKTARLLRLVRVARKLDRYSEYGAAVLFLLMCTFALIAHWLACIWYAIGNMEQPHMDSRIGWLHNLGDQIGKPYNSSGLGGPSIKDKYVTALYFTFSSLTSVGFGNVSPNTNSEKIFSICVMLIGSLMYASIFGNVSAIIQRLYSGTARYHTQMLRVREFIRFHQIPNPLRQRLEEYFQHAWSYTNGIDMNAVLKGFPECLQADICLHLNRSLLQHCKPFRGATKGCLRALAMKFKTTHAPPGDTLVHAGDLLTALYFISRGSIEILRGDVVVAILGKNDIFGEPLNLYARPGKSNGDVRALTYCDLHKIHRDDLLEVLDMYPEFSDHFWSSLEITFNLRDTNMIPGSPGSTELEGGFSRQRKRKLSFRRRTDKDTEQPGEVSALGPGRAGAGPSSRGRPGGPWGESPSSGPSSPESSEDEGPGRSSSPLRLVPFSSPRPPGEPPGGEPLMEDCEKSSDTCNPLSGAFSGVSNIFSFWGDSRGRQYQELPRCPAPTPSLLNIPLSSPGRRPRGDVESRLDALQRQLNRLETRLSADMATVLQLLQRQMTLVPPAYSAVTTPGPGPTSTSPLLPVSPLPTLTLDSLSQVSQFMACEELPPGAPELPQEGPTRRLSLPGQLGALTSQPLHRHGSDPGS

| SMILES | hERG current change (%, negative = inhibition) at 10uM |
| --- | --- |
| CCN(CC)CCCNC(=O)N[C@@H](Cc1ccccc1)C(=O)O | 9.59% |
| CC1CCN(C(=O)c2ccc(S(=O)(=O)Cc3ccccc3F)c([N+](=O)[O-])c2)CC1 | 9.69% |
| O=C1OC(Nc2ccc(F)c([N+](=O)[O-])c2)c2ccccc21 (stereo not drawn) | -1.46% |
| CC(C)N(Cc1ccccc1)C(=O)CN1C(=O)COc2ccc(S(=O)(=O)N3CCCCCC3)cc21 | 2.42% |
| C1=CC2c3ccccc3NC(c3ccncc3)C2C1 (stereo not drawn) | -10.5% |
| Cn1c(=O)c(-c2ccccc2)nn2c3ccccc3nc12 | 5.3% |
| Cc1ccccc1C(C(=O)NCc1ccccc1)N(Cc1ccco1)C(=O)c1ccccn1 (stereo not drawn) | -10.3% |
| CN(CC(=O)Nc1ccc(F)cc1)C(=O)C1CCN(C(=O)Nc2ccccc2)CC1 | -11.3% |
| CCC(=O)Nc1ccc(-c2nnc(SCC(=O)NCC3CCCO3)n2C)cc1 (stereo not drawn) | 20.6% |
| N#CCCSCc1ccc(C(=O)O)o1 | 4.52% |
| O=C(NCCCN1CCCC1=O)c1ccc(S(=O)(=O)Nc2ccccc2F)cc1 | 7.51% |
| COc1ccc(CCNC(=O)CCCCCN2C(=O)c3ccccc3C2=O)cc1OC | -14.6% |
| COCCNCc1nc2sc(C)c(-c3ccccc3)c2c(=O)[nH]1.O=C(O)C(=O)O | -0.995% |
| CCOC(=O)O[C@]1(C(=O)COC(=O)CC)CC[C@H]2[C@@H]3CCC4=CC(=O)C=C[C@]4(C)[C@H]3[C@@H](O)C[C@@]21C | -7.31% |
| O=C(CCCN1C(=O)/C(=C/c2ccc3c(c2)OCO3)SC1=S)Nc1cccc(C(=O)O)c1 | 11.1% |
| Cc1ccc(OCC(=O)Nc2ccc(N3CCN(C(=O)c4ccco4)CC3)cc2)cc1 | -56.1% |
| Cc1ccc(S(=O)(=O)NCc2ccc(C(=O)NC3CC3)cc2)cc1 | -9.14% |
| CCC(C)NC(=O)CCS(=O)(=O)c1ccc2c(c1)n(C)c(=O)c(=O)n2C (stereo not drawn) | -17.4% |
| CCn1cc(C(=O)O)c(=O)c2cc(F)c(N3CCN(C(=S)NC(=O)c4cccc(F)c4)CC3)cc21 | 5.44% |
| Cc1ccc2[nH]c3c(=O)n(CCC4=CCCCC4)cnc3c2c1 | 4.95% |
| NC(=O)c1cccc2c(=O)oc3ccccc3c12 | 0.534% |
| COc1cccc(NC(=S)NCCN2CCOCC2)c1 | 11.5% |
| Cc1[nH]nc2nc(SCC(=O)NC3CCCCC3)n(-c3ccc(Br)cc3)c(=N)c12 | 9.54% |

| SMILES | hERG current change (%, negative = inhibition) at 10uM |
| --- | --- |
| CCOc1cc(NC(=S)NCC2CCCO2)c(OCC)cc1NC(=O)c1ccc(OC)cc1 (stereo not drawn) | -0.542% |
| CO/N=C/c1c(-c2ccccc2)nn(C)c1Cl | 10.6% |
| Cn1ccsc1=NC(=O)c1cccc(C#N)c1 | 15.6% |
| CCNC(=S)SCCOc1ccccc1C | 17% |
| NC(=O)C1(N2CCCCC2)CCN(C(=S)Nc2cc(F)cc(F)c2)CC1 | -7.5% |
| Cc1ccc2nc3sc(C(=O)N4CCCc5ccccc54)c(N)c3cc2c1 | 2.69% |
| CN1CC(C(=O)c2ccc(Cl)cc2)C(c2ccccc2)C1 (stereo not drawn) | -31.8% |
| C/C(CC(=O)Nc1ccc(N(C)C)cc1)=N\NC(=O)c1ccc([N+](=O)[O-])cc1 | -12.3% |
| CC(C)C(=O)O/N=C(\N)c1ccc(Oc2ccc(Cl)cc2)c([N+](=O)[O-])c1 | 3.35% |
| O=C(CSc1nnc2c(n1)[nH]c1ccccc12)NCc1ccccc1F | -0.0777% |
| O=C(CCn1c(=O)oc2ccccc21)NCc1ccco1 | 15.9% |
| COc1ccc(CCN2C(=NC(=O)CC(C)C)SC3CS(=O)(=O)CC32)cc1OC (stereo not drawn) | -12.1% |
| NS(=O)(=O)c1ccc(N=C2C(=O)Nc3ccccc32)cc1 | 11.7% |
| CC1=NN=C(c2ccc(N)cc2)c2cc3c(cc2C1)OCO3.Cl | 5.04% |
| Cc1ccc(C(=O)NCCSC(C)(C)C)cc1 | -5.45% |
| CCOc1ccc(N2C(=O)CNC2=S)cc1 | 15.8% |
| CSc1ncccc1C(=O)Nc1nc2ccc(S(C)(=O)=O)cc2s1 | -3.88% |
| COc1cc(/C=C/c2cc(C(=O)O)c3ccccc3n2)ccc1OC(F)F | 2.9% |
| O=C(COC(=O)C1(c2ccccc2)CCCC1)N1CCNC1=O | -5.73% |
| COc1ccc(CC(O)CC2c3c(cc4c(c3OC)OCO4)CCN2C)cc1.Cl (stereo not drawn) | -78.9% |
| CCOCCCNC(=O)C1CCCN1C(=O)NC1CCCCC1 (stereo not drawn) | 20.7% |
| CCn1c(C2CC(=O)N(c3ccc(C)c(C)c3)C2)nc2ccccc21 (stereo not drawn) | -11.5% |
